This is an account of results in PubChem BioAssay AID1508642 (National Center for Advancing Translational Sciences (NCATS), 2021).

About 200 (0.47%) of roughly 43,000 compounds were called active. About 12% were inconclusive and are not listed. Calls follow the shape of the dose curve; as a rule, active = well fitted cell-killing curve with a large enough effect; inconclusive = small, poorly fitted or top-dose-only effect, or effect the other way; inactive = flat fitted curve, though single readings scatter. The list shows a part of the results.
% is scaled to controls: 0 for no effect and ±100 for the full control effect; potency is read from the fitted curve at half-maximal effect.

The experiment in a line: Cell viability qHTS assay in S16 Pmp22-F2sN cells. Also: nearly all actives have a fitted effect of over 65% in size. As to conditions: S16 Pmp22-F2sN Schwann cells viability, CellTiter-Glo, 24 h; series mostly up to 57.5 µM; activity change, negative = cytotoxicity: at the top concentration. Summed up:
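S16 Pmp22-F2sN Schwann cells (500-1,000/well) in phenol-red-free DMEM with 10% FBS received 23 nL compound by pin tool for 24 h at 37 °C. Viability was then read as CellTiter-Glo luminescence after 15 min at room temperature.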
In general terms: qHTS replaces the single test concentration by a dilution series.
Regarding `Cc1ccc(-n2nc3c(N4CCC(C(=O)NCCC(C)C)CC4)nnc(C)c3c2C)cc1`, the “activity change, negative = cytotoxicity” value is inactive: -27%.

`Cc1ccc2oc(=O)c3cc(C(=O)Nc4cccc(C#N)c4)sc3c2c1`: the “activity change, negative = cytotoxicity” value was inactive: -3.8%.

In the case of `COCc1cc(C)n(CC(=O)Nc2cccc(C(C)=O)c2)c(=O)c1C#N`, the “activity change, negative = cytotoxicity” value is inactive: -2.01%.

Take `Cc1ccc(-c2nc3cc(NC(=O)c4cc(Br)ccc4Cl)ccc3o2)cc1`: the “activity change, negative = cytotoxicity” value was inactive: 0.538%.

For the molecule `CCOc1ccccc1C(=O)N1CCCCC1CCN1CCOCC1` (centres undefined), the “activity change, negative = cytotoxicity” value was inactive: 16.6%.

For `CCCOc1cccc(C2c3c(oc4cc(C)c(C)cc4c3=O)C(=O)N2CCCN2CCOCC2)c1` (centres undefined), the “activity change, negative = cytotoxicity” value was inactive: 16.8%.

For `CCC(=O)N1CCc2cc(S(=O)(=O)NC(C(=O)NCCc3ccc(C)cc3)C(C)C)ccc21` (centres undefined), the “activity change, negative = cytotoxicity” value was inactive: -0.484%.

In the case of `CCOc1cc2[nH]c(=O)n(CCCCCC(=O)NC(C)CC)c(=O)c2cc1OCC` (centres undefined), the “activity change, negative = cytotoxicity” value was inactive: 4.57%.

For `COc1ccc(N2CCN(Cc3nc(-c4ccc(C)cc4)no3)CC2)cc1`, the “activity change, negative = cytotoxicity” value was inactive: 14.3%.

On to `CC1CCN(S(=O)(=O)c2cn(CC(=O)Nc3ccc(F)cc3)c(=O)c3ccccc23)CC1`, for which the “activity change, negative = cytotoxicity” value is inactive: -24.4%.

For `CCCN(CCC)CCCNC(=O)C1CCN(S(=O)(=O)c2cccc3nsnc23)CC1`, the “activity change, negative = cytotoxicity” value is inactive: 4.87%.

Consider `CCOc1ccc(S(=O)(=O)N2CCN(c3ccc(C)cc3C)CC2)c2ccccc12`, for which the “activity change, negative = cytotoxicity” value is inactive: -2.09%.

As for `CCN(C(=O)c1ccc2c(=O)n3c(nc2c1)CCCCC3)c1cc(C)ccc1C`, the “activity change, negative = cytotoxicity” value was inactive: 16.3%.

With `Cc1ccc(C(=O)CC2(O)C(=O)N(Cc3ccccc3)c3ccc(Br)cc32)cc1` (centres undefined), the “activity change, negative = cytotoxicity” value was inactive: -26.1%.

For the molecule `O=C1COc2ccc(-c3cc(-c4ccc(F)cc4)c4c(n3)-c3ccccc3OC4)cc2N1`, the “activity change, negative = cytotoxicity” value was inactive: 24.4%.

Consider `CCCCNS(=O)(=O)c1ccc2nc(-c3cccnc3)cc(C(=O)NCCCOCC)c2c1`, for which the “activity change, negative = cytotoxicity” value was inactive: -22.1%.

Consider `Cc1ccc(NC(=O)COCc2cc(-c3cccs3)on2)cc1Cl`, for which the “activity change, negative = cytotoxicity” value is inactive: -2.63%.

In the case of `CCCCOC(=O)c1ccc(NC(=O)/C(C#N)=C/c2ccc(C)o2)cc1`, the “activity change, negative = cytotoxicity” value is inactive: 8.4%.

Turning to `COC(=O)c1ccc(NC(=O)CN(c2cccc(C(F)(F)F)c2)S(C)(=O)=O)cc1`, the “activity change, negative = cytotoxicity” value was inactive: 2.41%.

In the case of `Cc1cccc(-n2c(SCC(=O)Nc3ccccc3C)nc3c(oc4ccccc43)c2=O)c1`, the “activity change, negative = cytotoxicity” value was inactive: -1.93%.

Consider `CCc1ccccc1N1C(=O)N(C)c2ccccc2S1(=O)=O`, for which the “activity change, negative = cytotoxicity” value is inactive: 16.2%.

With `CCOc1ccccc1CNC(=O)CCn1cccn1`, the “activity change, negative = cytotoxicity” value is inactive: 7.62%.

For the molecule `Cc1[nH]c2ccccc2c1C(=O)C(=O)NC1CC(=O)N(c2ccccc2)C1` (centres undefined), the “activity change, negative = cytotoxicity” value is inactive: 2.77%.

As to `Cc1ccc(N2CCN(S(=O)(=O)c3cc(Br)cc4c3N(C(=O)C3CC3)CC4)CC2C)cc1` (centres undefined), the “activity change, negative = cytotoxicity” value is inactive: 17.9%.

Consider `CCCCSc1nnc2c(n1)OC(c1ccc(C)s1)Nc1ccccc1-2` (centres undefined), for which the “activity change, negative = cytotoxicity” value is inactive: 2%.

For the molecule `CCC(CC)c1nn2cc(-c3ccccc3)nc2s1`, the “activity change, negative = cytotoxicity” value was inactive: 2.21%.

Take `CCOc1cc(-c2nnc(SCC(=O)NCCCOC)nc2-c2ccc(OC)c(OCC)c2)ccc1OC`: the “activity change, negative = cytotoxicity” value was inactive: 3.69%.

On to `COc1ccc(NC(=O)C(NS(=O)(=O)c2cccc3nsnc23)c2ccccc2)cc1` (centres undefined), for which the “activity change, negative = cytotoxicity” value is inactive: 7.18%.

For `Cn1cc(S(=O)(=O)N2CCCCC2)cc1C(=O)NCc1ccc(Cl)cc1`, the “activity change, negative = cytotoxicity” value was inactive: -27.1%.

`CCC(=O)Nc1nnc(S(=O)(=O)N2CCCCCC2)s1`: the “activity change, negative = cytotoxicity” value is inactive: 6.71%.

Take `COc1ccc(N2CC(NC(=O)Cc3cccs3)CC2=O)cc1OC` (centres undefined): the “activity change, negative = cytotoxicity” value was inactive: 0.489%.

As for `CCS(=O)(=O)N1CC(=O)N(c2ccc(C)c(C)c2)C(C)(C(=O)NC2CCCCCC2)C1` (centres undefined), the “activity change, negative = cytotoxicity” value was inactive: 4.66%.

Consider `CCCN(C(=O)c1cn(CC(C)C)c(=O)c2cc(OC)c(OC)cc12)c1cccc(C)c1`, for which the “activity change, negative = cytotoxicity” value was inactive: 4.4%.

Take `COc1ccc(-c2cn3c(n2)sc2cc(C(=O)N4CCCCC4)ccc23)cc1`: the “activity change, negative = cytotoxicity” value is inactive: -28.3%.

As to `CCc1ccc(NC(=O)CSc2nc3ccccc3c(=O)n2CCC(=O)NC2CCCCC2)cc1`, the “activity change, negative = cytotoxicity” value was inactive: 0.84%.

As to `Cc1nc2nc(C)c(CCC(=O)NCCc3ccccc3)c(C)n2n1`, the “activity change, negative = cytotoxicity” value was inactive: -0.587%.

In the case of `O=C(Cn1cc(S(=O)(=O)Cc2ccccc2Cl)c2ccccc21)Nc1cccc(C(F)(F)F)c1`, the “activity change, negative = cytotoxicity” value is inactive: -2.18%.

For the molecule `Cc1ccc(S(=O)(=O)N(CC(=O)Nc2c(C)cccc2C)c2cccc(Cl)c2)cc1`, the “activity change, negative = cytotoxicity” value is inactive: -27.2%.

On to `CCOc1ccc(C(NC(=O)c2cc(OC)c(OC)c(OC)c2)c2cc(Cl)c3cccnc3c2O)cc1` (centres undefined), for which the Potency was active: 1.78 µM.

Consider `Cc1ccc2nc(CN3CCN(S(=O)(=O)c4ccccc4)CC3)oc2c1`, for which the “activity change, negative = cytotoxicity” value was inactive: 15.7%.

Consider `Nc1c(-c2nc(-c3ccccc3Cl)no2)nnn1-c1ccccc1F`, for which the “activity change, negative = cytotoxicity” value was inactive: -1.86%.

Turning to `CCC(Sc1nc2cc3c(cc2c(=O)n1CCCC(=O)NCc1ccc2c(c1)OCO2)OCO3)C(=O)NCCCOC` (centres undefined), the “activity change, negative = cytotoxicity” value was inactive: 1.53%.

Regarding `CCC(=O)N1c2ccc(S(=O)(=O)N3CCCCCC3)cc2CC1C` (centres undefined), the “activity change, negative = cytotoxicity” value is inactive: 4.43%.

With `O=c1c2oc3ccccc3c2ncn1Cc1ccc(Br)cc1`, the “activity change, negative = cytotoxicity” value was inactive: -1.87%.

Turning to `COc1ccc(C2c3c(oc4ccccc4c3=O)C(=O)N2c2nc(C)c(C)s2)cc1` (centres undefined), the “activity change, negative = cytotoxicity” value was inactive: -0.153%.

In the case of `COc1ccc(C2c3c(-c4ccc(F)cc4)n[nH]c3C(=O)N2c2ccccc2)cc1OC` (centres undefined), the “activity change, negative = cytotoxicity” value was inactive: -20.6%.

As to `CCOc1ccc(CCNC(=O)c2cc3c(-c4ccccc4F)nn(C)c3s2)cc1OCC`, the “activity change, negative = cytotoxicity” value was inactive: -4.9%.

Take `CCOC(=O)c1ccc(NC(=O)c2ccc(-c3cccc(Cl)c3C)o2)cc1`: the “activity change, negative = cytotoxicity” value is inactive: 19.4%.

As to `CCOc1ccc(NC(=O)CS(=O)(=O)Cc2nc(-c3ccc(C)cc3)oc2C)cc1`, the “activity change, negative = cytotoxicity” value was inactive: -7.42%.
